According to patent US20220348590A1, “CYCLOOXYGENASE-2 INHIBITORS AND USES THEREOF” (The Board Institute, Inc., priority 2019, published 2022):
For some assays here: For at least one compound, name, drawing or mass did not settle the structure. Some of these results come from one statement about several compounds together.

Columns and labels:
[1] = biological target: T1, human recombinant COX2 (hCOX2) (UniProt P35354); test: LCMS-based COX2 enzymatic inhibition assay (PGE2 quantification); format: biochemical; design: COX2 2 minutes pge2/pge2d4 area ratio Avg; other: 2 minutes; readout pge2/pge2d4 area ratio; average; COX2 2 minutes pge2/pge2d4 area ratio Avg; LLE; average LLE; COX2 2 minutes pge2 area (counts) Avg; readout pge2 area (counts); other: 2 min; "ovine COX2 (oCOX2), human recombinant COX2 (hCOX2)"; conditions: average LLE; for COX2 2 minutes pge2/pge2d4 area ratio Avg. LLE: readout pge2/pge2d4 area ratio
T1 sequence (P35354 1-604): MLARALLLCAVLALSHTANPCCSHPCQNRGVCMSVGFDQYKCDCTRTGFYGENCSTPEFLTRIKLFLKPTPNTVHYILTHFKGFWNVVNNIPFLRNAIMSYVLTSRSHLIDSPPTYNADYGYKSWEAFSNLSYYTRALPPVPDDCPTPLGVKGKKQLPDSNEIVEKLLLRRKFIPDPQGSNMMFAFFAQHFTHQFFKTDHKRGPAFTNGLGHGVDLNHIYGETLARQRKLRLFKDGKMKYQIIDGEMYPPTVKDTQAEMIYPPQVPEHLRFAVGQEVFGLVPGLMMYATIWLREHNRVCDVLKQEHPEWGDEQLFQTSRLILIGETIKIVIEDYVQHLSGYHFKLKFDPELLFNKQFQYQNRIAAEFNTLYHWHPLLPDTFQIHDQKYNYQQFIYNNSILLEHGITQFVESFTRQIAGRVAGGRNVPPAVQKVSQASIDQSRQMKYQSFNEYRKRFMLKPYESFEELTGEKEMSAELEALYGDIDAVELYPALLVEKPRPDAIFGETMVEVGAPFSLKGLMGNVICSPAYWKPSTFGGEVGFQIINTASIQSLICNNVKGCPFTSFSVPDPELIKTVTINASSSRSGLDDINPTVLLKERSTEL
Experimental: (§1) We have adapted a previously reported cyclooxygenase enzymatic assay utilizing LCMS quantification of PGE2 as the product of COX-1 and COX2 catalyzed conversion of arachidonic acid to evaluate the binding properties of newly synthesized ligands [Cao, 2011]. These optimized and miniaturized (384-well plates) LCMS-based COX-1 and COX2 enzymatic assays enabled us to quickly evaluate newly synthesized ligands for COX2 binding affinity and selectivity vs COX-1. Using a shorter ligand-enzyme incubation time in the LCMS assay (2 minutes vs 10 minutes) also permitted us to prioritize ligands with faster binding kinetics. Considering the relatively slow on-rate kinetics of known coxibs, due to their 3-step binding mechanism [Marnett, 2009], we believe that optimizing this critical parameter will be key to the successful development of a COX2 PET tracer. Using these enzymatic assays, we have evaluated>200 newly synthesized ligands against COX2 and >20 ligands against COX-1. Another critical property necessary for a good PET radiotracer is to have low non-specific binding (NSB) to increase the free fraction and maximize the signal to noise ratio. This property can be evaluated using in-vitro protein binding assays, and we have now evaluated>50 newly synthesized ligands in mouse, rat and human plasma protein binding (PPB) assays as well as >15 ligands in a mouse brain protein binding (BPB) assay.
(§2) Ovine COX-1 (oCOX-1), ovine COX2 (oCOX2), human recombinant COX2 (hCOX2), arachidonic acid, PGE2, d4-PGD2, and […] (labeled with deuterium atoms at positions 3 and 4) were purchased from Cayman Chemicals (Ann Arbor, Mich.). The cofactors (−)epinephrine and hematin, and the COX inhibitors indomethacin, resveratrol and diclofenac were purchased from Sigma-Aldrich (St. Louis, Mo.). Celecoxib was purchased from 3B PharmaChem International (Wuhan, China). All organic solvents were HPLC grade or better and were purchased from Thermo Fisher (Hanover Park, Ill.). Formic acid was purchased from EMD Chemicals (San Diego, Calif.). Purified water was prepared by using a Millipore Milli-Q purification system (Millipore, Billerica, Mass.). All other chemicals and solvents were ACS reagent grade, unless stated otherwise.
(§3) In an Eppendorf tube, 146 μL of 100 mM Tris.HCl (pH 8.0) buffer, 2 μL of 100 μM hematin (co-factor) and 10 μL of 40 mM L-epinephrine (co-factor) were mixed at room temperature. Next, 20 μL of Tris.HCl (pH 8.0) buffer containing 0.2 μg COX2 or 0.1 μg COX-1 (approximately 1 unit of enzyme; 1 unit COX utilizes 1 nmol 02/mg/min at 37° C.) was added, and the solution was incubated at room temperature for 2 min. A 2 μL aliquot of the COX inhibitor in DMSO was added to the enzyme solution and preincubated at 37° C. for 10 min. Negative controls were identical except that 2 μL aliquots of DMSO without inhibitor were used instead.
(§4) Each COX reaction was initiated by adding 20 μL of arachidonic acid in Tris.HCl (pH 8.0) buffer to give a final concentration of 5 μM; and the reaction was terminated after 2 min by adding 20 μL of 2.0 M HCl. The surrogate standards d4-PGE2 and d4-PGD2 (10 μL aliquot of 50 ng/mL solution in methanol) were added to correct for errors or degradation during sample handling and for variation in injection volume or instrument response during LC-MS-MS. After 30 min, PGE2, PGD2 and their surrogate standards were extracted from each incubation mixture using 800 μL hexane/ethyl acetate (50:50, v/v). The organic phase was removed, evaporated to dryness, and reconstituted in 100 μL methanol/water (50:50, v/v) for analysis using LC-MS-MS.
(§5) The concentration of PGE2 in each sample was measured using LC-MS-MS, and the percent of COX inhibition by each test solution was determined by comparing the amount of PGE2 produced in the experiment with that produced in the negative control incubation. The formation of PGD2 was measured for quality control purposes, since the levels of PGD2 should be proportional to those of PGE2. […]

ovine COX-1 (oCOX-1) = biological target: T2, ovine COX-1 (oCOX-1) (Ovis aries, UniProt P05979); test: LCMS-based COX-1 enzymatic inhibition assay (PGE2 quantification); format: biochemical
T2 construct: purchased Cayman Chemicals (Ann Arbor, Mich.)
T2 sequence (P05979 25-600): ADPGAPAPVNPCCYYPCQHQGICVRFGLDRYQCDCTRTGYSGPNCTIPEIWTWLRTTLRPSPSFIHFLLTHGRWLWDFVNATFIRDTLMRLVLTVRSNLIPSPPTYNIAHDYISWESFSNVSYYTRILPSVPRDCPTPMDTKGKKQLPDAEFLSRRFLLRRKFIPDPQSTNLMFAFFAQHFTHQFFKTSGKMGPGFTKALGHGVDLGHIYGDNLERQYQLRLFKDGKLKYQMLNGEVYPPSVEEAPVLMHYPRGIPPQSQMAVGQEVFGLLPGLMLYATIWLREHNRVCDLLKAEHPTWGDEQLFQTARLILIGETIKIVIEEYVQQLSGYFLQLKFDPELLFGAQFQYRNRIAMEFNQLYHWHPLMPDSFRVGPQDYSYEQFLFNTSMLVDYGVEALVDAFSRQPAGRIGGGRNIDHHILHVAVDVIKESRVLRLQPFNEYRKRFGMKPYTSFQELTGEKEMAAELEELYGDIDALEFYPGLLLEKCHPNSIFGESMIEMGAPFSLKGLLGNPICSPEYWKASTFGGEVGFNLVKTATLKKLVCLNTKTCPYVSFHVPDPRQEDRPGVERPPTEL
Experimental: as §1, §2, §3, §4, §5

[2] = PET imaging in non-human primate (baboon); format: in vivo; conditions: across brain regions
Description: This ideal pharmacokinetic profile in non-human primate positions these two optimized lead radiotracers for further evaluation using kinetic modeling with an arterial plasma input function and correction for plasma fraction unbound to obtain total volume of distribution (VT), the gold standard measure for PET quantification.

[3] = biological target: T1, human recombinant COX2 (hCOX2); test: LCMS-based COX2 enzymatic inhibition assay (PGE2 quantification); format: biochemical; design: improvement in potency; other: COX2 potency relative to MC1 / earlier ligand; comparator not always stated; other: vs MC1 (MC-1); conditions: COX2 potency relative to MC1 / earlier ligand; comparator not always stated
Experimental: as §1, with “Considering the relatively slow on-rate kinetics of known coxibs, due to their 3-step binding mechanism [Marnett, 2009], we believe that optimizing this critical parameter will be key to the successful development of a COX2 PET tracer.” left out, “Another critical property necessary for a good PET radiotracer is to have low non-specific binding (NSB) to increase the free fraction and maximize the signal to noise ratio.” left out, “assay. […]” for “assay.”
as §5

[4] = readout pge2/pge2d4 area ratio, average LLE
[5] = readout pge2 area (counts), average LLE

Compound	COX2 2 minutes pge2/pge2d4 area ratio Avg. LLE [1]	COX2 2 minutes pge2 area (counts) Avg. LLE ([1]; readout pge2 area (counts))	COX1 10 minutes pge2 area (counts) Avg. LLE (ovine COX-1 (oCOX-1); [5])	further results
CS(=O)(=O)c1ccc(-c2cnc(C#N)c(NCc3cccs3)n2)cc1 [Compound 169]	4.601	4.813		COX2 10 minutes pge2 area (counts) Avg. LLE ([1]; 10 minutes, readout pge2 area (counts)): 5.526
CS(=O)(=O)c1ccc(-c2cccc(NCc3cccs3)n2)cc1 [Compound 24]	4.498	4.5592	1.039	COX1 10 minutes pge2/pge2d4 area ratio Avg. LLE (ovine COX-1 (oCOX-1); [4]): 1.02
CS(=O)(=O)c1ccc(-c2cccc(NCc3ccoc3)n2)cc1 [[^11C]47]				Standard Uptake Volume (SUV) [2]: 2-6
CS(=O)(=O)c1ccc(-c2nc(NCc3ccoc3)ccc2F)cc1 [Compound 48]	4.8978	4.8663		
CS(=O)(=O)c1ccc(-c2cncc(SCc3ccco3)n2)cc1 [Compound 78]	4.768	4.846		COX1 10 minutes pge2/pge2d4 area ratio Avg. LLE (ovine COX-1 (oCOX-1); pge2/pge2d4 area ratio, head of this section not shown, inferred): 1.925; COX1 10 minutes pge2 area (counts) Avg. LLE (ovine COX-1 (oCOX-1); pge2 area (counts), head of this section not shown, inferred): 1.734
Cc1ccc(COc2cncc(-c3ccc(S(C)(=O)=O)cc3)n2)s1 [Compound 124]	4.425	4.3461		
CS(=O)(=O)c1ccc(-c2cccc(NCc3ccco3)n2)cc1 [Compound 36]	4.974	4.967	1.695	COX1 10 minutes pge2/pge2d4 area ratio Avg. LLE (ovine COX-1 (oCOX-1); [4]): 1.492; improvement in potency [3]: ~4 fold
CS(=O)(=O)c1ccc(-c2cccc(Oc3ccccc3)n2)cc1 [Compound 70]	3.791	3.7404		
CS(=O)(=O)c1ccc(-c2nc(OCc3cccs3)cc3ccoc23)cc1 [Compound 5]	3.708	3.553	−0.356	
